Measured values reported in publication PMC4336329 (PLoS ONE, 2015).
The whole screen tested about 310,000 compounds, of which about 14,000 (4.5%) showed an effect of 50% or more. The effect is printed as a negative number. The list shows a part of the results.

What follows are compounds tested against human ether-à-go-go-related gene (hERG) potassium channel (human, UniProt Q12809) (assay: primary screen, population patch clamp on CHO cells stably expressing hERG).
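Note: peak tail current of the secondary pulse compared with the same well before compound.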

Chain of human ether-à-go-go-related gene (hERG) potassium channel (Q12809 whole entry, looked up): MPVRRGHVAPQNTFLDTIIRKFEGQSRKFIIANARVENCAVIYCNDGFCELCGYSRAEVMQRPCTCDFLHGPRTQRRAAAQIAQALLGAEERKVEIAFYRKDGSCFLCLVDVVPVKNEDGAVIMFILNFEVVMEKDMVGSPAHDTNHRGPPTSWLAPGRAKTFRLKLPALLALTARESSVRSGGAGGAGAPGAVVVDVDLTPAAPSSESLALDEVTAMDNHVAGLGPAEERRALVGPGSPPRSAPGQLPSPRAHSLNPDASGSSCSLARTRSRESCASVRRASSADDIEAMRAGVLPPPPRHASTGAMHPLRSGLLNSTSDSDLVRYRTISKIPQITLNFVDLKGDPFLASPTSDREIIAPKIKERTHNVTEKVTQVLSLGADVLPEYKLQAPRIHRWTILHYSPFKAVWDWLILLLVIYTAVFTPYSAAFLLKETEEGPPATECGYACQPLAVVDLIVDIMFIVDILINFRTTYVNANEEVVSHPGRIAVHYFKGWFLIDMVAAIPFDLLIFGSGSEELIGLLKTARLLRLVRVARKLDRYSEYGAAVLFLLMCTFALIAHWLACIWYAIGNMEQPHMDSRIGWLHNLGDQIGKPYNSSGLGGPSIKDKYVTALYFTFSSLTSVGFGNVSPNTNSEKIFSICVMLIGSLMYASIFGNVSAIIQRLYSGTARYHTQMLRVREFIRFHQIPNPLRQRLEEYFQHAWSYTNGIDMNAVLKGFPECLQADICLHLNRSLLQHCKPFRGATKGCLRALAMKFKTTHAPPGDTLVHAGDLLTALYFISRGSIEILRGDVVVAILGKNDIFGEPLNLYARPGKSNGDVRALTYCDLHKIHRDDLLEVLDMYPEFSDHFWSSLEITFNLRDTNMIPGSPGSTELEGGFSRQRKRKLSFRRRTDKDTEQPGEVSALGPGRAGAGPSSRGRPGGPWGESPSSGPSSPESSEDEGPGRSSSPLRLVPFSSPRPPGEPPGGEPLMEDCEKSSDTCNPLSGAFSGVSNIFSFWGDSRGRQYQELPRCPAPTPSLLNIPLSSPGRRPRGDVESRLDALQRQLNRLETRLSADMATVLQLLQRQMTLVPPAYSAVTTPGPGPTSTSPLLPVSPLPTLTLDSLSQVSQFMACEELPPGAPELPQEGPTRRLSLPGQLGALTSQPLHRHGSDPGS

Compared with CCOc1ccc(NCC2CCOC(C)(C)C2)cc1 (stereo not drawn), Cc1ccc(CCC(=O)Nc2ccc(Cl)cc2)o1 is higher in “hERG current change (%, negative = inhibition) at 10uM” value: 5.36% for the first, 12.8% for the second.

Compared with CCn1c(=O)n(CC)c2cc(NC(=O)CSc3ccc([N+](=O)[O-])cn3)ccc21, O=C(Nc1ccc(Cl)cc1)Nc1cc([N+](=O)[O-])ccc1F is higher in “hERG current change (%, negative = inhibition) at 10uM” value: -5.04% for the first, 5.04% for the second.

Going from COc1ccc(-c2noc(-c3ccc(Cl)cc3)n2)cc1 to COc1ccc(-n2c(SCC(N)=O)nnc2-c2cccnc2)cc1, the “hERG current change (%, negative = inhibition) at 10uM” value rises from 7.42% to 11.4%.

First: COc1cc(C(=O)N/N=C/c2ccc3c(c2)c2ccccc2n3C)ccc1O
Second: COc1ccccc1NC(=O)c1ccc2[nH]c(C)c(C)c2c1
The “hERG current change (%, negative = inhibition) at 10uM” value of the first is higher: 8.33% for the first, 3.62% for the second.

First: CCS(=O)(=O)c1ccc(S(=O)(=O)CC)s1
Second: CNS(=O)(=O)c1cc(OC)ccc1OC
The “hERG current change (%, negative = inhibition) at 10uM” value of the first is lower: -27.3% for the first, 13.2% for the second.

First: C=CCOc1ccc(/C=C\c2nc(O)c([N+](=O)[O-])c(=O)[nH]2)cc1OC
Second: COc1cc2c(cc1OC)C(c1c(Cl)cccc1Cl)NC(=O)C2 (stereo not drawn)
The “hERG current change (%, negative = inhibition) at 10uM” value of the first is lower: 10.7% for the first, 18.4% for the second.

Compared with CN(C)c1ccc(C2NC(=O)c3ccccc3N2)cc1 (stereo not drawn), Cc1nc2ccccc2cc1OCc1ccc(F)cc1 is lower in “hERG current change (%, negative = inhibition) at 10uM” value: 16.5% for the first, -0.607% for the second.

First: Cc1cc(C)cc(OCC(=O)O/N=C(\N)Cc2ccc([N+](=O)[O-])cc2)c1
Second: O=[N+]([O-])c1ccc(N/N=C/c2ccc[nH]2)cc1
The “hERG current change (%, negative = inhibition) at 10uM” value of the first is higher: -2.56% for the first, -8.38% for the second.

First: CC1CC2(NC(=O)NC2=O)C(C)CN1C (stereo not drawn)
Second: CC(Sc1n[nH]c(=O)n1Cc1ccccc1)C(=O)NC1CCCCC1C (stereo not drawn)
The “hERG current change (%, negative = inhibition) at 10uM” value of the first is higher: 17.6% for the first, 4.27% for the second.

Compared with Cc1ccc(S(=O)(=O)c2nc(-c3cccs3)oc2NCCCN(C)C)cc1, Cc1ccc(NC(=S)N(CCN(C)C)C(C)c2cccnc2)cc1 (stereo not drawn) is higher in “hERG current change (%, negative = inhibition) at 10uM” value: -67.8% for the first, -41.8% for the second.

Compared with O=C(c1cccc(S(=O)(=O)N2CCCC2)c1)N1CCCc2ccccc21, COCCn1c(N)c(C(=O)c2cccc(S(=O)(=O)N3CCCCCC3)c2)c(=O)[nH]c1=O is lower in “hERG current change (%, negative = inhibition) at 10uM” value: -15.6% for the first, -46.7% for the second.

Compared with CC(C)=NOCC(=O)Nn1c(COc2ccccc2)nc2ccccc2c1=O, Cc1cc2ccccc2c(=O)n1CC(=O)NCC(=O)N(C)Cc1ccccc1 is lower in “hERG current change (%, negative = inhibition) at 10uM” value: 15.3% for the first, 9.2% for the second.

Compared with Cc1ccc(C(=O)CSc2cc(C)nc(SCC(=O)c3ccccc3)n2)cc1, COc1ccccc1CNC(=O)c1cc(C)nc2ccccc12 is higher in “hERG current change (%, negative = inhibition) at 10uM” value: 7.9% for the first, 12% for the second.

Going from Cc1nn(C(C)C(=O)NCc2ccco2)c(C)c1[N+](=O)[O-] (stereo not drawn) to CC(C(=O)Nc1ccccn1)N1C(=O)c2ccccc2S1(=O)=O (stereo not drawn), the “hERG current change (%, negative = inhibition) at 10uM” value falls from 9.83% to -6.81%.

First: COc1ccccc1C(=O)Nc1ccc2c(c1)CCCN2C(=O)c1cccs1
Second: COC(=O)c1ccccc1Oc1ccc(NC(=O)c2ccco2)cc1
The “hERG current change (%, negative = inhibition) at 10uM” value of the first is higher: -1% for the first, -21.3% for the second.

Going from O=C(/N=C1\NC(=O)C(F)(C(F)(F)F)S1)NC1CCCCC1 (stereo not drawn) to C/C(CC(=O)Nc1ccc([N+](=O)[O-])cc1)=N/NC(=O)C1C2CCCCC21 (stereo not drawn), the “hERG current change (%, negative = inhibition) at 10uM” value falls from 13% to -21.7%.

Going from Cl.OCCNc1nc(Nc2ccccc2)nc2ccccc12 to c1ccc(OCCOc2ccccc2-c2nnco2)cc1, the “hERG current change (%, negative = inhibition) at 10uM” value rises from -35% to -8.44%.

First: CSc1ccc(/C=N/N2CCN(C)CC2)cc1.Cl
Second: CCOc1ncccc1C(=O)N1CCN(c2cc(Cl)ccc2C)CC1
The “hERG current change (%, negative = inhibition) at 10uM” value of the first is lower: -5.91% for the first, -4.75% for the second.

Going from CCOC(=O)c1cn(CC)c2cc(F)c(F)cc2c1=O to CCCCn1c(N)c(N(CC)C(=O)c2ccc([N+](=O)[O-])c(C)c2)c(=O)[nH]c1=O, the “hERG current change (%, negative = inhibition) at 10uM” value rises from 3.48% to 23.1%.

COc1cccc(N=Nc2ccc(O)c3ncccc23)c1 and C#CCN1C(=O)C(O)(c2c(C)[nH]c3ccccc23)c2ccccc21 (stereo not drawn) are the same in “hERG current change (%, negative = inhibition) at 10uM” value: 16.4% for the first, 16.4% for the second.

First: CC(C)CNC(=S)NC(=O)c1ccc(Cl)cc1
Second: Cc1ccc(NC(=O)NCc2cccnc2)cc1
The “hERG current change (%, negative = inhibition) at 10uM” value of the first is higher: -3.27% for the first, -25.1% for the second.

Compared with Cc1cc(C(=O)O)c(=O)[nH]c1C, CC1(C)CC(=O)c2cc(C(=O)O)c(=O)n(-c3ccccc3)c2C1 is lower in “hERG current change (%, negative = inhibition) at 10uM” value: 13.9% for the first, 13.2% for the second.

First: Cc1cc(C(=O)OCC(=O)N2CCOCC2)c2ccccc2n1
Second: O=C(c1csc2ccccc12)N1CCN(c2ccc(Cl)c(Cl)c2)CC1
The “hERG current change (%, negative = inhibition) at 10uM” value of the first is higher: 19.1% for the first, -12.5% for the second.

Going from CC(=O)OC1CC(c2cc(C(C)(C)C)c(O)c(C(C)(C)C)c2)=NO1 (stereo not drawn) to COC(=O)C1=C(C)OC(N)=C(C#N)C1c1cc(C)sc1C (stereo not drawn), the “hERG current change (%, negative = inhibition) at 10uM” value falls from 0.755% to -0.682%.

Compared with CCN(CC)c1ccc(CN(C(=O)c2cccs2)C2CCS(=O)(=O)C2)cc1 (stereo not drawn), O=C(NNC(=O)c1cccs1)c1ccccc1 is higher in “hERG current change (%, negative = inhibition) at 10uM” value: -9.26% for the first, 22% for the second.

First: Cc1nn(C)c(=O)n1-c1ccccc1
Second: O=C1CN(O)C(c2ccccc2)=c2cc(Cl)ccc2=N1
The “hERG current change (%, negative = inhibition) at 10uM” value of the first is higher: 29.3% for the first, -0.189% for the second.

First: COc1ccc(-c2cc(=Nc3c(C)n(C)n(-c4ccccc4)c3=O)c3ccccc3o2)cc1
Second: Cc1c(N=Cc2c(O)n(Cc3ccco3)c(=O)c3ccccc23)c(=O)n(-c2ccccc2)n1C
The “hERG current change (%, negative = inhibition) at 10uM” value of the first is lower: -68.1% for the first, -5.6% for the second.

Going from COc1cccc(NC(=O)CSc2nc3ccsc3c(=O)n2-c2ccc(C(=O)O)cc2)c1 to COc1ccccc1NS(=O)(=O)c1ccc(C(=O)N2CCN(c3ccccc3O)CC2)cc1, the “hERG current change (%, negative = inhibition) at 10uM” value falls from -1.02% to -14%.

First: Cc1cc(C)c(C(=O)C[n+]2cccc(C(N)=O)c2)c(C)c1.[Br-]
Second: Cc1c(CCOC(=O)c2cc([N+](=O)[O-])cc([N+](=O)[O-])c2)sc[n+]1CC(=O)c1ccc(Br)cc1.[Br-]
The “hERG current change (%, negative = inhibition) at 10uM” value of the first is higher: -14.1% for the first, -40.7% for the second.

Compared with COC(=O)c1ccc(C(NC(=O)c2cccnc2)NC(=O)c2cccnc2)cc1, O=C(Nc1nc(N2C(=O)c3ccccc3C2=O)n(-c2ccccc2)n1)c1ccccc1 is lower in “hERG current change (%, negative = inhibition) at 10uM” value: 21.8% for the first, -19.3% for the second.

Going from O=C(Nc1ccnn1C1CCN(CC2CC=CCC2)CC1)c1ccccc1Cl (stereo not drawn) to COC(c1ccccc1)c1nnc(CCC(=O)N(C)C(C2CC2)C2CC2)o1 (stereo not drawn), the “hERG current change (%, negative = inhibition) at 10uM” value rises from -70.7% to -7.83%.

First: COC(=O)CCN(C(=O)C1C2CC3CC(C2)CC1C3)c1ccccn1 (stereo not drawn)
Second: COc1ccccc1NC(=O)Cn1cnc2c(oc3nc4c(cc32)CCCC4)c1=O
The “hERG current change (%, negative = inhibition) at 10uM” value of the first is higher: 10% for the first, -24.9% for the second.

Compared with CC(=O)C1=C(O)C(=O)N(Cc2cccnc2)C1c1ccc(Cl)cc1Cl (stereo not drawn), CCNS(=O)(=O)c1ccc(NC(=O)c2ccc(Cn3cc(Br)cn3)o2)cc1 is lower in “hERG current change (%, negative = inhibition) at 10uM” value: 3.96% for the first, -45.5% for the second.

First: O=C(NS(=O)(=O)c1ccccc1)c1ccccc1
Second: Cc1sc(NC(=O)c2ccccc2)c(C#N)c1-c1ccccc1
The “hERG current change (%, negative = inhibition) at 10uM” value of the first is lower: -0.567% for the first, 14.7% for the second.

Going from COc1ccc(NC(=S)NCc2cccs2)cc1OC to COc1ccc(CCNC(=O)c2ccc(C)s2)cc1OC, the “hERG current change (%, negative = inhibition) at 10uM” value falls from 32.5% to 11.1%.

Going from Cc1c(CCC(=O)N[C@@H](C)C(=O)O)c(=O)oc2cc3oc4c(c3cc12)CCCC4 to COc1ccc2oc(C(=O)N(C)Cc3ccc4c(c3)OCCO4)c(C)c2c1, the “hERG current change (%, negative = inhibition) at 10uM” value falls from 12.2% to -10.5%.

Going from CC(=O)N1CCC(=O)N(C(C)C)c2ccccc21 to CCC(=NCCc1c[nH]c2ccccc12)c1c(O)n(C)c(=O)n(C)c1=O, the “hERG current change (%, negative = inhibition) at 10uM” value falls from 3.9% to -10.8%.

Going from CCCCN=C[C@]12CCC(O)CC1(O)CCC1[C@@H]2CC[C@]2(C)[C@H](C3C=CC(=O)O3)CCC12O (stereo partly drawn) to O=C(C1CCN(S(=O)(=O)N2CCC3(CC2)OCCO3)CC1)N1CCc2ccccc2C1, the “hERG current change (%, negative = inhibition) at 10uM” value falls from 5.59% to -9.28%.

Going from COc1cccc(C2CC(=O)NC3=C2C(=O)CCC3)c1 (stereo not drawn) to COc1cccc(OCCOCCNCCO)c1, the “hERG current change (%, negative = inhibition) at 10uM” value falls from 9.6% to -6.7%.

Going from CN(CC(=O)NNC(=O)CCNS(=O)(=O)c1ccccc1)S(=O)(=O)c1ccc(Cl)cc1 to Cc1ccc(S(=O)(=O)NNC(=O)c2cnn(-c3ccccc3)c2C(F)(F)F)cc1, the “hERG current change (%, negative = inhibition) at 10uM” value rises from -17.8% to 10.3%.

Compared with COc1ccc(C2=NN(C(=O)CSc3nnc(C)n3C)C(c3ccco3)C2)cc1 (stereo not drawn), Cc1nnc(NC(=O)CSc2nnc(-c3ccc(S(=O)(=O)N4CCCC4)cc3)n2C)s1 is lower in “hERG current change (%, negative = inhibition) at 10uM” value: -0.173% for the first, -3.39% for the second.

First: O=C(COC(=O)CCCCCN=C1NS(=O)(=O)c2ccccc21)Nc1ccc(Cl)c(Cl)c1
Second: O=C(CCCCCN1C(=O)c2ccccc2C1=O)Nc1ccc2c(c1)OCCO2
The “hERG current change (%, negative = inhibition) at 10uM” value of the first is higher: 11.5% for the first, -1.8% for the second.

Compared with CSc1ccccc1NC(=S)Nc1cccc(C(F)(F)F)c1, Cn1c(Cn2nnc(-c3ccccc3)n2)nnc1SCc1ccccc1Cl is lower in “hERG current change (%, negative = inhibition) at 10uM” value: 5.6% for the first, -34.4% for the second.

Going from O=C(CCCCCn1c(=S)[nH]c2cc3c(cc2c1=O)OCO3)N1CCN(Cc2ccccc2)CC1 to OCC1(CCc2ccccc2)CCCN(C/C=C/c2ccccc2)C1 (stereo not drawn), the “hERG current change (%, negative = inhibition) at 10uM” value falls from 7.9% to -73.5%.

Going from Cc1ccc(-n2ncc3c(=O)[nH]cnc32)c(C)c1 to Cc1ccc(OCCOCCn2cnc3ccccc3c2=O)cc1C, the “hERG current change (%, negative = inhibition) at 10uM” value falls from 6.98% to -0.362%.
